The other results are listed elsewhere or left out.
How the values were obtained:
Assay in all cases: glycan array binding signal (z-score within array); higher = stronger binding
Details in all cases: glycan notation: IUPAC condensed, linker removed; mutation: Y228A
[1] = target: Fuc(a1-2)Gal
Summary of the method: (§1)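 Glycan array data were curated from 3228 arrays in the Consortium for Functional Glycomics database and kept only where the protein sequence was available. Glycan names were converted to IUPAC-condensed notation, and columns mapping to the same glycan were averaged. The binding signal is a within-array Z-score, averaged across arrays of the same protein sequence at different concentrations or buffers and across linkers. Negative Z-scores can be read as non-binding.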

[2] = target: Fuc(a1-2)Gal(b1-3)GalNAc
Summary of the method: as §1

[3] = target: Fuc(a1-2)Gal(b1-3)GalNAc(a1-3)[Fuc(a1-2)]Gal(b1-4)Glc
Summary of the method: as §1

[4] = target: Fuc(a1-2)Gal(b1-3)GalNAc(a1-3)[Fuc(a1-2)]Gal(b1-4)GlcNAc
Summary of the method: as §1

[5] = target: Fuc(a1-2)Gal(b1-3)GalNAc(b1-3)Gal
Summary of the method: as §1

[6] = target: Fuc(a1-2)Gal(b1-3)GalNAc(b1-3)Gal(a1-4)Gal(b1-4)Glc
Summary of the method: as §1

[7] = target: Fuc(a1-2)Gal(b1-3)GalNAc(b1-4)[Neu5Ac(a2-3)]Gal(b1-4)Glc
Summary of the method: as §1

[8] = target: Fuc(a1-2)Gal(b1-3)GlcNAc
Summary of the method: as §1

[9] = target: Fuc(a1-2)Gal(b1-3)GlcNAc(b1-2)Man(a1-3)[Fuc(a1-2)Gal(b1-3)GlcNAc(b1-2)Man(a1-6)]Man(b1-4)GlcNAc(b1-4)GlcNAc
Summary of the method: as §1

[10] = target: Fuc(a1-2)Gal(b1-3)GlcNAc(b1-2)Man(a1-3)[Fuc(a1-2)Gal(b1-3)GlcNAc(b1-2)Man(a1-6)]Man(b1-4)GlcNAc(b1-4)[Fuc(a1-6)]GlcNAc
Summary of the method: as §1

[11] = target: Fuc(a1-2)Gal(b1-3)GlcNAc(b1-3)Gal(b1-4)Glc
Summary of the method: as §1

[12] = target: Fuc(a1-2)Gal(b1-3)GlcNAc(b1-3)GalNAc
Summary of the method: as §1

[13] = target: Fuc(a1-2)Gal(b1-3)GlcNAc(b1-3)[Fuc(a1-2)Gal(b1-3)GlcNAc(b1-6)]GalNAc
Summary of the method: as §1

[14] = target: Fuc(a1-2)Gal(b1-3)GlcNAc(b1-3)[Gal(b1-4)GlcNAc(b1-6)]Gal(b1-4)Glc
Summary of the method: as §1

[15] = target: Fuc(a1-2)Gal(b1-3)GlcNAc(b1-3)[Neu5Ac(a2-6)Gal(b1-4)GlcNAc(b1-6)]Gal(b1-4)Glc
Summary of the method: as §1

[16] = target: Fuc(a1-2)Gal(b1-3)GlcNAc6S
Summary of the method: as §1

[17] = target: Fuc(a1-2)Gal(b1-3)[Fuc(a1-4)]GlcNAc
Summary of the method: as §1

[18] = target: Fuc(a1-2)Gal(b1-3)[Fuc(a1-4)]GlcNAc(b1-2)Man(a1-3)[Fuc(a1-2)Gal(b1-3)[Fuc(a1-4)]GlcNAc(b1-2)Man(a1-3)]Man(b1-4)GlcNAc(b1-4)GlcNAc
Summary of the method: as §1

[19] = target: Fuc(a1-2)Gal(b1-3)[Fuc(a1-4)]GlcNAc(b1-2)Man(a1-3)[Fuc(a1-2)Gal(b1-3)[Fuc(a1-4)]GlcNAc(b1-2)Man(a1-6)]Man(b1-4)GlcNAc(b1-4)[Fuc(a1-6)]GlcNAc(b1-4)[Fuc(a1-6)]GlcNAc
Summary of the method: as §1

[20] = target: Fuc(a1-2)Gal(b1-3)[Fuc(a1-4)]GlcNAc(b1-3)[Fuc(a1-3)[Gal(b1-4)]GlcNAc(b1-6)]Gal(b1-4)Glc
Summary of the method: as §1

[21] = target: Fuc(a1-2)Gal(b1-3)[Fuc(a1-4)]GlcNAc(b1-3)[Gal(b1-4)GlcNAc(b1-6)]Gal(b1-4)Glc
Summary of the method: as §1

[22] = target: Fuc(a1-2)Gal(b1-4)Fuc(a1-3)]GlcNAc(b1-2)Man(a1-3)[Fuc(a1-2)Gal(b1-4)[Fuc(a1-3)]GlcNAc(b1-2)Man(a1-6)]Man(b1-4)GlcNAc(b1-4)GlcNAc
Summary of the method: as §1

[23] = target: Fuc(a1-2)Gal(b1-4)Glc
Summary of the method: as §1

[24] = target: Fuc(a1-2)Gal(b1-4)Glc6S
Summary of the method: as §1

[25] = target: Fuc(a1-2)Gal(b1-4)GlcNAc
Summary of the method: as §1

[26] = target: Fuc(a1-2)Gal(b1-4)GlcNAc(b1-2)Man
Summary of the method: as §1

[27] = target: Fuc(a1-2)Gal(b1-4)GlcNAc(b1-2)Man(a1-3)[Fuc(a1-2)Gal(b1-4)GlcNAc(b1-2)Man(a1-6)]Man(b1-4)GlcNAc(b1-4)GlcNAc
Summary of the method: as §1

[28] = target: Fuc(a1-2)Gal(b1-4)GlcNAc(b1-2)Man(a1-3)[Fuc(a1-2)Gal(b1-4)GlcNAc(b1-2)Man(a1-6)]Man(b1-4)GlcNAc(b1-4)[Fuc(a1-6)]GlcNAc
Summary of the method: as §1

[29] = target: Fuc(a1-2)Gal(b1-4)GlcNAc(b1-2)[Fuc(a1-2)Gal(b1-4)GlcNAc(b1-4)]Man(a1-3)[Fuc(a1-2)Gal(b1-4)GlcNAc(b1-2)Man(a1-6)]Man(b1-4)GlcNAc(b1-4)GlcNAc
Summary of the method: as §1

[30] = target: Fuc(a1-2)Gal(b1-4)GlcNAc(b1-3)Gal(b1-4)GlcNAc
Summary of the method: as §1

[31] = target: Fuc(a1-2)Gal(b1-4)GlcNAc(b1-3)Gal(b1-4)GlcNAc(b1-2)Man(a1-3)[Fuc(a1-2)Gal(b1-4)GlcNAc(b1-3)Gal(b1-4)GlcNAc(b1-2)Man(a1-6)]Man(b1-4)GlcNAc(b1-4)GlcNAc
Summary of the method: as §1

[32] = target: Fuc(a1-2)Gal(b1-4)GlcNAc(b1-3)Gal(b1-4)GlcNAc(b1-3)Gal(b1-4)GlcNAc
Summary of the method: as §1

[33] = target: Fuc(a1-2)Gal(b1-4)GlcNAc(b1-3)GalNAc
Summary of the method: as §1

[34] = target: Fuc(a1-2)Gal(b1-4)GlcNAc(b1-3)[Fuc(a1-2)Gal(b1-4)GlcNAc(b1-6)]GalNAc
Summary of the method: as §1

[35] = target: Fuc(a1-2)Gal(b1-4)GlcNAc(b1-3)[Fuc(a1-3)[Gal(b1-4)]GlcNAc(b1-6)]Gal(b1-4)Glc
Summary of the method: as §1

[36] = target: Fuc(a1-2)Gal(b1-4)GlcNAc(b1-6)GalNAc
Summary of the method: as §1

[37] = target: Fuc(a1-2)Gal(b1-4)GlcNAc6S
Summary of the method: as §1

[38] = target: Fuc(a1-2)Gal(b1-4)[Fuc(a1-3)]GlcNAc
Summary of the method: as §1

[39] = target: Fuc(a1-2)Gal(b1-4)[Fuc(a1-3)]GlcNAc(b1-2)Man(a1-3)[Fuc(a1-2)Gal(b1-4)[Fuc(a1-3)]GlcNAc(b1-2)Man(a1-6)]Man(b1-4)GlcNAc(b1-4)[Fuc(a1-6)]GlcNAc
Summary of the method: as §1

[40] = target: Fuc(a1-2)Gal(b1-4)[Fuc(a1-3)]GlcNAc(b1-2)[Fuc(a1-2)Gal(b1-4)[Fuc(a1-3)]GlcNAc(b1-4)]Man(a1-3)[Fuc(a1-2)Gal(b1-4)[Fuc(a1-3)]GlcNAc(b1-2)Man(a1-6)]Man(b1-4)GlcNAc(b1-4)GlcNAc
Summary of the method: as §1

[41] = target: Fuc(a1-2)Gal(b1-4)[Fuc(a1-3)]GlcNAc(b1-3)Gal(b1-4)[Fuc(a1-3)]GlcNAc
Summary of the method: as §1

[42] = target: Fuc(a1-2)Gal(b1-4)[Fuc(a1-3)]GlcNAc(b1-3)Gal(b1-4)[Fuc(a1-3)]GlcNAc(b1-3)Gal(b1-4)[Fuc(a1-3)]GlcNAc
Summary of the method: as §1

[43] = target: Fuc(a1-2)Gal(b1-4)[Fuc(a1-3)]GlcNAc(b1-3)GalNAc
Summary of the method: as §1

[44] = target: Fuc(a1-2)Gal(b1-4)[Fuc(a1-3)]GlcNAc(b1-3)[Neu5Ac(a2-6)Gal(b1-4)GlcNAc(b1-6)]Gal(b1-4)Glc
Summary of the method: as §1

[45] = target: Fuc(a1-2)Gal3S(b1-4)GlcNAc
Summary of the method: as §1

B1: Epa1-NP-mutant-Y228A (Candida glabrata), Q6VBJ0 (protein)
chain: MILNPALFLNKCVCIYTTLILLLLTNGGYATSSNDISLASKDPTTFPLGCSPDITTPKKGLSMELYSYDFRKKGSYPCWDAAYLDPNYPRTGYKSHRLLAKVDGVTGNINFYYHATKGCTPQLGHLPASYNYPKPLTMTNFTMLLYGYFRPKVTGFHTFTISADDLLFVNFGAGNAFDCCRRDSSADHFGNYQAYAIWGSKTAKDELTVHLDAGVYYPIRLFYNNREADGALSFTFKTESNENTVSDFSEYFFSLDDTEEGCPGLISYDSSCASVKTSKIIGIDYHTETPNENLVPITKTIYHLGIPCTGTTTTPLCGSGFYDPLANKCVTINTSSTSSVTKTTSHTTSKEVSFHSSISSQKTLIPKSIPSPYGPIKSQSIPTEMETSSEISSSEYAFSDVISTPSHSPYTKKHSSLNSSSYTSTVIHSLTSYSISQGIFSTSLSEQNITSKSSTDKFSTATSMSNNITQSSIIISQFSTNNENYTTTSMHTSSDKISTETLNNSISTTTSILFSNSSTILKNNTTIISSDKDTHYHPVNPTIVCSTNKTEIICASITQPSISNSNNHWSSSVLKFNSTTVRSTLPSSAGSNETSINVPFSSSTESNTSTSSTSTSNSKMVRSTLPSSAGSNETSISVPFSSSTESNTSTSSTSTSNSKMVRSTLPSSAGSNETSINVPFSSSTESNTSTSSTSTSNSKTVRSTPFSSAGIIMTSLSQRNNKSASSYASSNSKCYNTADSCRKVHSTPSYLLTSSYTSEGVDYDCSLVSTKLKINDTNCVNNKHTTKSCLKTSVTTTIPTLEIKTARKSSSNTIGLHSYPTSSPNKSISSAPIIGYISSFKTIKTASPSYQTSDLTTITTITSLNNPGSTAVENTHESNDKSRKTSSNDISSKHSVIKETKDAVESSNKSHQTNTLKCSSIIIASSSHNSYESLGGTTLTLTLSKVYSPQNNDTLPFLEISEVNPSRTVLPESSKMMQYLTSTEERNKTARNTIATNIVSISTFHFEGEGNAIRMGYTQLLLMLIGIIVMNIGT
glycan array binding signal (z-score) [1]: -0.198
glycan array binding signal (z-score) [2]: -0.26
glycan array binding signal (z-score) [3]: -0.231
glycan array binding signal (z-score) [4]: -0.209
glycan array binding signal (z-score) [5]: -0.25
glycan array binding signal (z-score) [6]: -0.328
glycan array binding signal (z-score) [7]: -0.321
glycan array binding signal (z-score) [8]: -0.251
glycan array binding signal (z-score) [9]: -0.104
glycan array binding signal (z-score) [10]: -0.085
glycan array binding signal (z-score) [11]: -0.246
glycan array binding signal (z-score) [12]: -0.272
glycan array binding signal (z-score) [13]: -0.187
glycan array binding signal (z-score) [14]: -0.261
glycan array binding signal (z-score) [15]: -0.258
glycan array binding signal (z-score) [16]: -0.209
glycan array binding signal (z-score) [17]: 0.168
glycan array binding signal (z-score) [18]: -0.09
glycan array binding signal (z-score) [19]: -0.098
glycan array binding signal (z-score) [20]: -0.414
glycan array binding signal (z-score) [21]: -0.27
glycan array binding signal (z-score) [22]: -0.236
glycan array binding signal (z-score) [23]: -0.177
glycan array binding signal (z-score) [24]: 0.011
glycan array binding signal (z-score) [25]: -0.292
glycan array binding signal (z-score) [26]: -0.302
glycan array binding signal (z-score) [27]: -0.023
glycan array binding signal (z-score) [28]: -0.172
glycan array binding signal (z-score) [29]: -0.139
glycan array binding signal (z-score) [30]: -0.333
glycan array binding signal (z-score) [31]: -0.174
glycan array binding signal (z-score) [32]: -0.226
glycan array binding signal (z-score) [33]: -0.226
glycan array binding signal (z-score) [34]: -0.178
glycan array binding signal (z-score) [35]: -0.278
glycan array binding signal (z-score) [36]: -0.209
glycan array binding signal (z-score) [37]: -0.027
glycan array binding signal (z-score) [38]: -0.298
glycan array binding signal (z-score) [39]: -0.114
glycan array binding signal (z-score) [40]: -0.119
glycan array binding signal (z-score) [41]: -0.21
glycan array binding signal (z-score) [42]: -0.183
glycan array binding signal (z-score) [43]: -0.103
glycan array binding signal (z-score) [44]: -0.173
glycan array binding signal (z-score) [45]: -0.183
